Measurements from PubChem BioAssay AID504832 (National Center for Advancing Translational Sciences (NCATS), 2011).
In all, about 310,000 compounds went through this assay and about 18,000 (5.8%) were called active. Inconclusive results, whose numbers are uncertain, are shown with a selection of clear calls. Calls follow the shape of the dose curve; as a rule, active = well fitted inhibition curve with a large enough effect; inconclusive = small, poorly fitted or top-dose-only effect, or another doubt; inactive = no such curve, though single readings can be large or run the other way. No potency is given beside an inconclusive call; the fits are too rough.

Assay: Primary qHTS for delayed death inhibitors of the malarial parasite plastid, 48 hour incubation
Settings: P. falciparum luciferase growth in erythrocytes; series mostly up to 28.7 µM
Procedure, shortened: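 Growth was read as firefly luciferase luminescence after a 48 h, 37 C, 5% CO2 exposure of compounds to reporter-bearing P. falciparum cultures (0.1% parasitemia, 2% hematocrit final) in Albumax-supplemented RPMI 1640.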
Potency is read from the fitted curve at half-maximal effect; tags tell the direction and shape of the fitted curve.

Compound	Potency
CC(NC(=O)c1cccnc1)c1ccc2c(c1)OCO2 (stereo not drawn)	inactive
COc1ccc(NC(=O)c2n[nH]c(=O)c3ccccc23)cc1S(=O)(=O)N1CCCCC1	inconclusive [inhibitor, partial curve, poor fit]
CCOC(=O)C(=O)N1c2ccccc2C(N(C(=O)C(=O)OCC)c2ccccc2)CC1C (stereo not drawn)	inconclusive [inhibitor, partial curve]
CCOC(=O)/C(C)=N/Nc1nc(-c2ccc(NC(C)=O)cc2)cs1	inconclusive [inhibitor, full curve]
COc1ccc(-c2noc(CSc3nc4ccccc4c(=O)n3-c3ccccc3)n2)cc1OC	inconclusive [inhibitor, single point]
NNC(=O)/C(=C\c1ccc(Br)cc1)NC(=O)c1cccs1	inactive
CC(C)C[C@H](NC(=O)[C@@H]1Cc2c([nH]c3ccccc23)C2c3ccccc3C(=O)N21)C(=O)NCC1CCCO1 (stereo partly drawn)	inconclusive [inhibitor, single point]
CCCCC(CC)CNCc1cccn1CCN1CCOCC1 (stereo not drawn)	active: 11.7 µM
CC(C)CC(NC(=O)OC(C)(C)C)c1cn([C@@H](Cc2ccc(O)cc2)C(=O)N2CCN(C(=O)OC(C)(C)C)CC2)nn1 (stereo partly drawn)	inconclusive [inhibitor, full curve, poor fit]
COc1ccc(CCNc2ncnc3c2nnn3Cc2ccccc2)cc1OC	inconclusive [inhibitor, partial curve, poor fit]
Cn1cccc1-c1cc(C(=O)N/N=C/c2ccc([N+](=O)[O-])cc2)[nH]n1	inactive
CC(=O)N(Cc1ccccc1)c1ncc2c(n1)c(=O)c(C#N)c1ccccn12	inconclusive [inhibitor, partial curve]
Cc1cccc(NC(=S)N(CCN(C)C)Cc2cccs2)c1	inactive
Cc1ccccc1OC1C(=O)N(CC2CCCO2)C1c1ccc2c(c1)OCO2 (stereo not drawn)	inconclusive [inhibitor, single point]
O=C(Cn1cc(S(=O)(=O)N2CCCC2)c(S(=O)(=O)N2CCCC2)c1)NCc1ccco1	inconclusive [inhibitor, single point]
CCOc1ccc(Oc2nc(NCC(C)C)nc(OC)n2)nn1	inconclusive [inhibitor, partial curve, poor fit]
C=CCOc1c(Br)cc(/C=C2\SC(=Nc3ccccc3)NC2=O)cc1OC	inconclusive [inhibitor, partial curve]
Cc1[nH]c2ccccc2c1SCCNC(=O)c1ccc(Br)o1	inconclusive [inhibitor, single point]
CC(=O)Nc1nc(C)c(CCC2OCCO2)c(=O)[nH]1	inactive
CN(C)/C=C1\Cc2ccccc2C1=O	inactive
COc1ccc2c(c1)C(=O)CCC2c1ccccc1 (stereo not drawn)	inactive
CCN1C(=O)C(CC(=O)Nc2ccc(OC)cc2)N(CCc2ccccc2F)C1=S (stereo not drawn)	inconclusive [inhibitor, single point]
COc1ccc([N+](=O)[O-])cc1NC(=O)C(C)Sc1ccc(C)cc1 (stereo not drawn)	inconclusive [inhibitor, single point]

Compound	Potency
COc1cccc(-c2nn(C)c3sc(C(=O)NCc4ccco4)cc23)c1	active: 7.38 µM
O=[N+]([O-])c1ccc(S(=O)(=O)N2CCN(c3ccc(N4CCOCC4)nn3)CC2)cc1	inconclusive [inhibitor, partial curve]
O=[N+]([O-])c1ccc2ncnc(Nc3ccc4c(c3)OCCO4)c2c1	active: 9.28 µM
CCc1ccc(NC(=O)N(CCCN2CCOCC2)C(C)c2cc3cccc(OC)c3o2)cc1 (stereo not drawn)	inconclusive [inhibitor, single point]
S=C(NCc1cccnc1)Nc1ccc(Oc2ccc(Cl)cc2)cc1	inactive
Cc1ccccc1CN1CCC(n2nccc2NC(=O)CCCc2ccccc2)CC1	inconclusive [inhibitor, partial curve]
COc1cc(Cl)c(CN2CCCC(CO)(Cc3cccc(Cl)c3)C2)cc1OC (stereo not drawn)	inconclusive [inhibitor, single point]
CC(C)c1ccc2oc3nc(N)c(C(=O)O)cc3c(=O)c2c1	inconclusive [inhibitor, single point]
Cc1cc2c(N=NC(=O)C3CC3c3ccccc3)c(O)[nH]c2cc1Br (stereo not drawn)	inactive
CCN(CC)c1nc(-c2ccccc2)nc2c1sc(=S)n2CC	inconclusive [inhibitor, full curve]
CC1CCCCN1C(=O)c1cc2c(=O)n3ccccc3nc2s1 (stereo not drawn)	inactive
O=CNCCc1nc2ccccc2n1CCc1ccccc1	inconclusive [inhibitor, single point]
CCCCCCCCCc1ccc(OCCOCCOCCOCCOCCOCCOCCOCCOCCO)cc1	active: 8.49 µM
CN1C(=O)NC(=O)/C(=C/c2ccc([N+](=O)[O-])s2)C1=O	inconclusive [inhibitor, single point]
Cc1cc(C)c2cc3c(N)c(C(=O)N4CCc5ccccc5C4)sc3nc2c1	inconclusive [inhibitor, single point]
COc1ccc(NC(=O)Cn2ncc(Cl)c(Cl)c2=O)cc1S(=O)(=O)N1CCOCC1	inconclusive [inhibitor, single point]
CNC(=S)N(CCc1c(C)[nH]c2ccc(OC)cc12)Cc1cccnc1	inactive
CCc1cccc(C)c1NS(=O)(=O)Cc1ccccc1	inconclusive [inhibitor, single point]
Cc1ccc(S(=O)(=O)NCc2ccc(C(=O)NCCN(Cc3ccccc3)C(C)C)cc2)cc1	inconclusive [inhibitor, single point]
Nc1c(C(=O)Nc2ccc(S(=O)(=O)N3CCCC3)cc2)sc2nc3cc4c(cc3cc12)CCC4	active: 1.85 µM
Cc1ccc2nc(-c3ccc(Br)o3)oc(=O)c2c1	inactive
Cc1sc2nc(SCC(=O)c3cccs3)n(Cc3ccco3)c(=O)c2c1C	inconclusive [inhibitor, single point]
COc1ccc2c3c([nH]c2c1)C1CC2C(CC(O)C(OC)C2C(=O)O)CN1CC3 (stereo not drawn)	active: 9.28 µM

Compound	Potency
COc1cccc(C2SCC(=O)N2c2ccc(Cl)cc2)c1OC (stereo not drawn)	inconclusive [inhibitor, partial curve, poor fit]
CCCN(CCC)C(=O)CSc1nc2n[nH]c(C)c2c(=N)n1-c1ccc(OC)cc1	inconclusive [inhibitor, single point]
O=C(CSc1ccc(Br)cc1)Nc1cccc(S(=O)(=O)N2CCOCC2)c1	inconclusive [inhibitor, single point]
Cc1ccc(C)c(NC(=O)c2ccc(S(=O)(=O)C(F)F)cc2)c1	inactive
CCCC(=O)NCc1cc(-c2nn(C)c(=O)c3ccccc23)ccc1C	inconclusive [inhibitor, single point]
CN(C(=O)CSc1nnc(-c2ccco2)n1C)C1CCCCC1	inconclusive [inhibitor, single point]
CN(Cc1c(C(=O)N(C)Cc2ccccc2)nc2ccccn12)CC1Cc2ccccc2O1 (stereo not drawn)	inconclusive [inhibitor, full curve, poor fit]
CN(C(=O)CSc1nnc(Cc2cccs2)n1C1CC1)C1CCS(=O)(=O)C1 (stereo not drawn)	inconclusive [inhibitor, single point]
CC(C)(C)c1ccc(S(=O)(=O)NCc2ccc(C(=O)NCC3CCCO3)cc2)cc1 (stereo not drawn)	inconclusive [inhibitor, partial curve, poor fit]
OCCNCCSc1ccc(Cl)cc1	inactive
COc1cccc(NS(=O)(=O)c2ccc3[nH]cc(C(=O)NCCC(C)C)c(=O)c3c2)c1	active: 9.28 µM
Cc1ccccc1N=Cc1c(O)n(-c2nccs2)c(=O)c2ccccc12	inactive
COCc1c(C(=O)N2CCN(c3ncccn3)CC2)oc2ccccc12	inactive
C#CCOCCOCCOCCNc1nc(N2CCN(C(=O)CCCCCCCCCCNC(=O)Cn3cc(C[C@@H](C)O)nn3)CC2)nc(N2CCN(C(=O)CCCCCCCCCCNC(=O)[C@H](CCCCN)n3cc(C[C@@H](C)CC)nn3)CC2)n1	active: 0.329 µM
CCNC(=O)CSc1nnc(-c2cccc(S(=O)(=O)N(CC)CC)c2)n1CCc1ccccc1	inconclusive [inhibitor, single point]
Cc1ccc(Cc2nnc3n(-c4cccc(C)c4)nc(C(=O)c4ccccc4)n3c2=O)cc1	active: 5.22 µM
COc1ccc(NC(=O)CCNS(=O)(=O)c2cccc(C(C)=O)c2)cc1S(N)(=O)=O	inconclusive [inhibitor, full curve, poor fit]
CC1Cc2ccccc2N1C(=O)NC1CC(=O)N(c2ccc3c(c2)OCCO3)C1 (stereo not drawn)	inactive
COc1ccc(CNC2c3ccccc3-c3ccccc32)cc1OC	inconclusive [inhibitor, single point]
CC(SC#N)C(=O)C12CC3CC(CC(C3)C1)C2 (stereo not drawn)	active: 13.1 µM
Cc1cc(NC(=O)c2ccc(N(C)S(=O)(=O)c3ccccc3)cc2)no1	inconclusive [inhibitor, single point]
Cc1ccccc1Cn1c2ccccc2c2cnn(CC(=O)NCCCN3CCOCC3)c(=O)c21	inconclusive [inhibitor, single point]
